This note sets out measurements from PubChem BioAssay AID1963576 (National Center for Advancing Translational Sciences (NCATS), 2024).

In all, about 46,000 compounds went through this assay and about 60 (0.1%) were called active. Roughly 3% stayed inconclusive and do not appear here. The call rests on the fitted dose curve; in most records, active means well fitted inhibition curve with a large enough effect; inconclusive means small, poorly fitted or top-dose-only effect; inactive means no such curve, though single readings can be large or run the other way. The list shows a part of the results.

A short description of this assay: Primary qHTS assay for Inhibitors of ovarian cancer metastasis using an organotypic tumor microenvironment (TME) model. Further: nearly all actives have a fitted effect of over 65% in size.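 On activity change, negative = inhibition: plate controls were DMSO wells for no effect and tomatine positive control wells for full effect.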 As to conditions: SKOV3ip1-GFP adhesion/invasion on 3D omental model, fluorescence; series mostly up to 45.8 µM; activity change, negative = inhibition: at the top concentration. A digest of the protocol:
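qHTS, 4-pt dose (0.36-46 umol/L); SKOV3ip1-GFP, 1,200 cells/well, no FBS; primary omental fibroblast/mesothelial co-culture 48 h pre-grown; 2 h RT + 16 h 37 C; PBS wash, 4% PFA; GFP count 488/509 nm.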
`COCCCNC(=O)CSc1nc(-c2ccc(OC)cc2)[nH]c1-c1ccc(OC)cc1`: the “activity change, negative = inhibition” value is inactive: 5.6%. On the same count and under the same terms, with `COc1ccc2oc(=O)cc(CN3CCN(c4ccccc4OC)CC3)c2c1` the figure was inactive: 2.27%. For `CCOC(=O)c1c(C)[nH]c(CCC(=O)Nc2ccccc2OCC)c1C`, the compound was classed as inactive. For `CCC1(C)CC(=O)NC1=O` (stereo not drawn), the “activity change, negative = inhibition” value was inactive: 20.4%.

Consider `CC(=O)Nc1ccccc1OCc1cc(=O)n2c(C)csc2n1`, for which the compound was classed as inactive. The same measure, in the same setting: under `Cc1ccc(-c2nc(C)c(CCNC(=O)C(=O)Nc3ccc(C)c(Cl)c3)s2)cc1` stands “inactive”. Turning to `CCOC(=O)c1cc(S(=O)(=O)NCc2ccc(F)cc2)[nH]n1`, the “activity change, negative = inhibition” value was inactive: 5.33%. Consider `CC(C)(O)CC(=O)NCCn1ccc2ncnc(Nc3ccc(Oc4cccc(C(F)(F)F)c4)c(Cl)c3)c21`, for which the “activity change, negative = inhibition” value is inactive: 4.95%.

Regarding `COc1cccc(-c2nn(C)c3sc(C(=O)NCc4ccc(C)cc4)cc23)c1`, the call was inactive.

On to `CCN(CC)C(=O)c1sc2c(c1C)c(=O)n(-c1ccc(OC)cc1OC)c(=O)n2Cc1cc(C)ccc1C`, for which the “activity change, negative = inhibition” value is inactive: 3.95%. Consider `CC(=O)N1c2ccc(S(=O)(=O)NCc3ccc(Cl)cc3)cc2CC1C` (stereo not drawn), for which the “activity change, negative = inhibition” value is inactive: -5.88%. As for `CCC(CC)C(=O)Nc1cccc(-c2nc3ncccn3c2C)c1`, the compound was called inactive. In the case of `CCc1ccc(CNC(=O)Cn2nc(C)c3c(C)n(-c4ccc(C)cc4)nc3c2=O)cc1`, the “activity change, negative = inhibition” value was inactive: 9.36%. `CN1CCN(CCNC(=O)c2cnn(-c3cccc(Cl)c3)c2C2CCN(C(=O)OC(C)(C)C)CC2)CC1`: the compound was called inactive. In the case of `Cc1cc(=O)n2nc(N3CCC(C(=O)NCc4ccccc4F)CC3)sc2n1`, the compound was called inactive. Consider `COc1ccc(CN(C)c2ccc(-c3nc(C)no3)cc2[N+](=O)[O-])cc1`, for which the compound was called inactive.

Regarding `CCN(CCCNC(=O)CSc1cc(=O)n(C)c2cc(Cl)ccc12)c1ccccc1`, the “activity change, negative = inhibition” value was inactive: 10.8%. Still for that read-out and setting: with `CCN(CC)CCCNC(=O)CSc1nc2nc(C)c(Cc3ccccc3C)c(C)n2n1` the figure was inactive: -10.5%. In the case of `COc1ccc(NC(=O)Cn2nc(SC)c(S(=O)(=O)c3ccc(C)cc3)c2N)cc1OC`, the “activity change, negative = inhibition” value is inactive: 0.319%. For the compound `COCCN(Cc1ccco1)C(=O)c1cc2c(Cl)nc3ccc(C)cc3c2s1`, the “activity change, negative = inhibition” value is inactive: -5.37%. Take `COc1ccc(CNc2nc3c(-c4ccc(C)cc4)nnn3c3ccccc23)cc1`: the compound was called inactive.

With `CCOc1ccc(NC(=O)CC2C(=O)N(c3ccc(F)cc3)C(=O)N2CCc2sccc2C)cc1` (stereo not drawn), the “activity change, negative = inhibition” value was inactive: 0.94%.

As for `CCC(=O)N1CCc2cc(Br)cc(S(=O)(=O)CCC(=O)N(C)c3cccc(C)c3)c21`, the “activity change, negative = inhibition” value is inactive: -1.49%. Same read-out and setting: with `COc1ccc(C2C(=O)N(C3CCC(C)CC3)CC(=O)N2C2CCCCC2)cc1OC` (stereo not drawn) the figure was inactive: -1.77%. Consider `Fc1ccccc1N1CCN(c2ncnc3c2nc2n3CCCCC2)CC1`, for which the “activity change, negative = inhibition” value was inactive: 9.54%. As for `COc1ccc(-n2nc(C(=O)NCCCOC(C)C)c3c4ccccc4n(C)c3c2=O)cc1`, the compound was called inactive. As for `O=C(Nc1c(Cl)cccc1Cl)c1cccc2c1C(=O)N(C1CCCCC1)C2`, the call was inactive.

Regarding `O=C(O)c1ccc2oc(=O)n(Cc3ccccc3)c2c1`, the “activity change, negative = inhibition” value is inactive: -3.95%.

As for `CCCS(=O)(=O)NCCc1csc2nc(-c3ccc(C)cc3)nn12`, the call was inactive. `CCOC(=O)c1cc2c(=O)n3ccccc3nc2n(CCCOC)c1=NC(=O)c1c(-c2ccccc2Cl)noc1C`: the “activity change, negative = inhibition” value was inactive: 4.08%. `Cc1ccc(NC(=O)c2sc3nc4n(c(=O)c3c2C)CCCCC4)c(Br)c1`: the compound was classed as inactive. Regarding `Cc1ccc(-n2ncc(C(=O)N3CCN(C4CCCCC4)CC3)c2C2CCN(C(=O)OC(C)(C)C)CC2)cc1C`, the call was inactive. Turning to `CN(C(=O)Cn1c(=O)n(CCC(=O)NCc2ccc3c(c2)OCO3)c(=O)c2sccc21)c1ccccc1`, the outcome was inactive.

As for `O=C(Cn1cnc(S(=O)(=O)N2CCCC2)c1)Nc1cccc(F)c1`, the outcome was inactive. On to `Cc1nc2nc(C)c(NS(=O)(=O)c3ccc(F)cc3)c(=O)n2[nH]1`, for which the “activity change, negative = inhibition” value is inactive: -6.2%. In the case of `CCOc1ccc(NC(=O)C2CCCN(c3nn4cc(-c5ccc(OC)cc5)nc4s3)C2)cc1` (stereo not drawn), the “activity change, negative = inhibition” value is inactive: 8.7%. Still for that read-out and setting: under `CCCCN(C(=O)Nc1ccc(Cl)cc1)C1CCN(C(C)=O)CC1` stands inactive: -5.32%. With `CC(=O)c1cccc(NC(=O)C2=CC(c3ccc(F)cc3)=NS(=O)(=O)N2C)c1`, the “activity change, negative = inhibition” value is inactive: -2.93%.

On to `Oc1c(C(c2ccccc2F)N2CCC3(CC2)OCCO3)sc2nc(-c3ccco3)nn12` (stereo not drawn), for which the compound was called inactive. As for `CCCCCCc1c(C)c2c(cc(C)c3c(C)c(C)oc32)oc1=O`, the “activity change, negative = inhibition” value is inactive: -6.52%. For the compound `Cc1cccc(N2CCN(C(=O)CCCn3c(=O)[nH]c4ccsc4c3=O)CC2)c1C`, the result was inactive.

With `O=C1CC(c2nc3ccccc3n2CCC2CCCCC2)CN1c1ccccc1Cl` (stereo not drawn), the “activity change, negative = inhibition” value is inactive: 6.45%. As to `Cc1ccc(NC(=O)Cn2c(=O)n(CCCC(=O)NCc3ccc4c(c3)OCO4)c(=O)c3ccccc32)cc1`, the outcome was inactive.

For the compound `Cc1ccc2onc(CC(=O)N3CCN(c4ccc(Cl)cc4)CC3)c2c1`, the “activity change, negative = inhibition” value was inactive: -6.21%. Regarding `COc1ccc(OC)c(CNC(=O)c2ccc(Sc3ccc(Cl)cc3)c(NC(C)=O)c2)c1`, the “activity change, negative = inhibition” value is inactive: -2.9%.

Take `O=C(NCCc1ccccc1)c1ccc(Cn2c(=O)c3cccn3c3cccnc32)cc1`: the “activity change, negative = inhibition” value was inactive: 9.04%.

Regarding `CCN(c1ccc(Cl)cc1)S(=O)(=O)c1nnc(NC(=O)c2ccco2)s1`, the result was inactive. Take `COC(=O)c1cc2oc3ccccc3c2n1CC(=O)Nc1ccc(OC)c(OC)c1`: the “activity change, negative = inhibition” value is inactive: 6.46%.
